Hit rate of the full screen: of about 410,000 compounds, about 6,400 (1.6%) were called active. The shares of active, inactive and inconclusive entries below differ from those in the screen. The call rests on the fitted dose curve; in most records, active means well fitted inhibition curve with a large enough effect; inconclusive means small, poorly fitted or top-dose-only effect; inactive means no such curve, though single readings can be large or run the other way. Potencies of inconclusive entries are doubtful fits and often do not repeat.
target: Glucagon-like peptide 1 receptor (Homo sapiens) (UniProt P43220); test: qHTS of GLP-1 Receptor Inverse Agonists (Inhibition Mode); conditions: HEK293 GLP-1R CRE-luciferase, luminescence, 24 h, GLP-1R form is constitutively active; series mostly up to 38.3 µM; further: nearly all actives have a fitted effect of over 55% in size
Summary of the method: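 Luminescence readout: a drop in cAMP-driven luciferase signal flags inverse agonism at a constitutively active GLP-1R stably expressed in HEK293. Compound exposure lasted 24 hr at 37 deg C, 5% CO2.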
Potency means the concentration at half of the fitted maximal effect; tags describe the fitted curve by direction and shape.

Sequence of UniProt P43220 (P43220 whole entry, looked up): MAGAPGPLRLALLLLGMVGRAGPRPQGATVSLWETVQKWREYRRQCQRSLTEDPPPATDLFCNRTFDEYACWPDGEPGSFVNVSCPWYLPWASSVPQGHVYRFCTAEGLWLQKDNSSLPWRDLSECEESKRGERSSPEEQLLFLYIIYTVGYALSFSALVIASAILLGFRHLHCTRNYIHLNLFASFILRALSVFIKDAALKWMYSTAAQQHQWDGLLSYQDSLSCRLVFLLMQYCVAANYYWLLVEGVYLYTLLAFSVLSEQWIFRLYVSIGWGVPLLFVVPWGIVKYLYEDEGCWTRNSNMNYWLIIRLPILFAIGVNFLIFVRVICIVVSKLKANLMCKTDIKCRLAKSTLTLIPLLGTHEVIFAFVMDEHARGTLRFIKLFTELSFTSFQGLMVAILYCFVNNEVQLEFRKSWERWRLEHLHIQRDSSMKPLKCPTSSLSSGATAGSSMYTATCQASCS

Potency, inconclusive:
COc1ccc(C(=O)c2c(-c3cccc(C)c3)oc3ccc(N4CCOCC4)cc23)cn1 2.82 µM [inhibitor, full curve]
COc1cccc(C(NC(C)=O)c2nc(-c3cccc(C(F)(F)F)c3)cs2)c1 (stereo not given) 28.2 µM [inhibitor, single point]
Cc1ccc(C(c2nnnn2C2CCCCC2)N2CCc3ccccc32)cc1 (stereo not given) 10 µM [inhibitor, single point]
CC[C@]12c3[nH]c4ccc(OC)cc4c3CCN1C(=O)C(CC(=O)NC/C=C(\C)CCC=C(C)C)C[C@@H]2C(=O)N1CCN(C(=O)c2ccco2)CC1 (stereo not given in full) 28.2 µM [inhibitor, single point]
O=C(CN1CCN(Cc2ccccc2F)C1=O)NCCc1ccc(Cl)cc1 28.2 µM [inhibitor, single point]
COC(=O)c1ccc(Oc2cc(C)nc(SC)n2)cc1 1.12 µM [inhibitor, full curve, poor fit]
COc1cc(C(=O)NNC(=S)NC(=O)c2ccc3c(c2)OCO3)cc(OC)c1OC 5.62 µM [inhibitor, full curve, poor fit]
CC(C)OC(=O)C(C)Oc1ccc(C(=O)NCCc2ccccc2)cc1 (stereo not given) 10 µM [inhibitor, partial curve]
CCCOc1ccc(N2C(=O)CC(N(CCc3ccc(OC)cc3)C(=O)c3ccccc3)C2=O)cc1 (stereo not given) 12.6 µM [inhibitor, single point]
C=CCN(CC=C)C(=S)Nc1cc(Cl)ccc1OC 5.62 µM [inhibitor, full curve, poor fit]
O=C1CN(C(=O)COc2ccc(Cl)cc2Cl)C(c2ccccc2)c2cc(F)ccc2N1 (stereo not given) 28.2 µM [inhibitor, single point]
CSc1ccc(-c2nc3cccc(C)n3c2Nc2ccc(Cl)cc2)cc1 22.4 µM [inhibitor, single point]
O=C(Nc1ccc2c(c1)OCCO2)c1ccc(Br)cc1 20 µM [inhibitor, single point]
CC(=O)c1ccc(OCCCC(=O)Nc2cccc(S(=O)(=O)N3CCCCCC3)c2)cc1 28.2 µM [inhibitor, single point]
O=C(c1ccccc1)c1cc(F)c(N2CCOCC2)cc1Cl 28.2 µM [inhibitor, single point]
Brc1ccc2nc(-c3cccs3)c(NCC3CCCO3)n2c1 (stereo not given) 7.08 µM [inhibitor, partial curve]
O=C(c1cccs1)N(Cc1nc2sc3c(c2c(=O)[nH]1)CCCC3)C1CCCC1 7.94 µM [inhibitor, partial curve]
COc1c(C)cc(C(O)c2ncc(-c3cccc4ccccc34)[nH]2)cc1C (stereo not given) 10 µM [inhibitor, partial curve, poor fit]
COc1ccc(-c2cc(C)no2)cc1S(=O)(=O)NCCCN(C)Cc1ccccc1 11.2 µM [inhibitor, partial curve, poor fit]
CCCn1c(NC(=O)c2cccc(S(=O)(=O)N3CCCC3)c2)nc2ccccc21 28.2 µM [inhibitor, single point]
Cc1ccc(S(=O)(=O)N2CC[C@H]3[C@@H](C2)C(=O)C[C@@H](c2ccccc2)N3S(=O)(=O)c2ccc(C)cc2)cc1 1.58 µM [inhibitor, full curve, poor fit]
COc1cccc(CNC(=O)CN2C(=O)CSc3ccc(S(=O)(=O)N4CCCCC4)cc32)c1 11.2 µM [inhibitor, partial curve, poor fit]
Cc1ccc(N(C(=O)c2snc(C(N)=O)c2N)C(C(=O)NC2CCCC2)c2ccc(C)o2)cc1 (stereo not given) 28.2 µM [inhibitor, single point]
CCCN(CC(=O)Nc1ccccc1C)C(=O)c1ccc(C2SCCS2)cc1 7.94 µM [inhibitor, partial curve]
Cc1nc2c(OCc3ccc(Cl)cc3Cl)cccn2c1N(C)Cc1cccs1 8.91 µM [inhibitor, partial curve, poor fit]
FC(F)(F)c1ccccc1Cc1c(-c2ccco2)nc2ccc(Cl)cn12 20 µM [inhibitor, single point]
CC(C)(C)C1CCc2nc(NC(=O)Cc3ccccc3)sc2C1 (stereo not given) 10 µM [inhibitor, partial curve, poor fit]
COc1ccccc1NC(=O)Nc1nc(CC(=O)NCc2ccccn2)cs1 12.6 µM [inhibitor, partial curve, poor fit]
CCOC(=O)CC(NC(=O)C1c2ccccc2Oc2ccccc21)c1ccccc1Cl (stereo not given) 5.62 µM [inhibitor, full curve]
CC(C)CCNC(=S)Nc1ccccc1F 31.6 µM [inhibitor, single point]

Potency, active:
COc1cc(S(=O)(=O)N2CCCCCC2)c(OC)cc1Br 4.47 µM
CCOC(=O)c1cn2nc(N3CCCC3)ccc2n1 5.62 µM

Potency, inactive:
Cc1ccc(/C=N/NC(=O)c2nnn(-c3nonc3N)c2CSc2ccccc2)s1
O=C(Nc1nnc(-c2ccco2)s1)C1CCN(S(=O)(=O)c2ccc(Cl)cc2)CC1
CC(=O)c1cccc(NC(=O)CCn2c(=S)oc3ccccc32)c1
CCN1C(=O)N[C@@H](c2cccc(C(F)(F)F)c2)C(C(=O)OC)=C1C
O=C(Nc1nccs1)c1ccc(Cl)cc1[N+](=O)[O-]
COC(=O)c1ccccc1NC(=O)N1CCC(N2CCN(Cc3ccc(F)cc3)C(=O)C2=O)CC1
Oc1ccc(NCc2ccccc2OCc2ccc(Cl)cc2)cc1
COc1cc(/C=C2\CCCc3c2nc2ccccc2c3C(=O)O)cc(Br)c1O

Reference: PubChem BioAssay AID624417 (National Center for Advancing Translational Sciences (NCATS), 2012)
